# Measurements taken from PubChem BioAssay (Tox21).
# Values joined by “and” are separate entries in the source; they are usually repeats but may differ in a detail not shown here. Equal values may be shown once. Inconclusive results, whose numbers are uncertain, are shown with a selection of clear calls. Potencies beside an inconclusive call are fits to weak or partial responses and may not hold up. Some structures have more than one record in an assay (separate samples or runs), and their calls can disagree. Active and inactive are the calls of the source. Unless noted, calls come from the whole dose curve; as a rule, active = well fitted curve in the direction sought with a large enough effect in the repeat runs; inconclusive = weak or mixed curves; inactive = no such curve, though single readings can be large; an effect the other way counts as inactive or inconclusive.
# What was measured:
# [1] = target: Nuclear receptor subfamily 1 group I member 3 (Homo sapiens) (UniProt Q14994); experiment: qHTS assay to identify small molecule agonists of the constitutive androstane receptor (CAR) signaling pathway (AID 1224839); note: nearly all actives have a fitted effect of over 15% in size; for activation: % is set by controls: 0 for no effect and ±100 for the full control effect
# In short: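 Cells were plated and incubated 4 hrs, then dosed with compounds at 15 concentrations. PK11195 was added to 0.75 uM final. After 24 hrs at 37 C, luciferase luminescence was measured.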
# [2] = qHTS assay to identify small molecule antagonists of the estrogen related receptor signaling pathway with the pleiotropic PPARgamma coactivator (PGC) from Tox21 10K library - cell viability counter screen (AID 1224840; active = well fitted cell-killing curve with a large enough effect in the repeat runs, not every such curve was filed as active; inconclusive = weak or mixed curves, or effect the other way; inactive = no such curve, though single readings can be large or run the other way; note: nearly all actives have a fitted effect of over 40% in size)
# In short: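 Multiplexed viability counter screen in the PGC/ERR cell line: cells treated with DMSO-dissolved compounds for 17.5 hours at 37 C, then viability measured as CellTiter-Fluor fluorescence.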
# [3] = qHTS assay to identify small molecule antagonists of the estrogen related receptor signaling pathway with the pleiotropic PPARgamma coactivator (PGC) from Tox21 10K library (AID 1224841; call rule not given here; note: actives are mostly falling curves and most rising ones were filed inactive; nearly all actives have a fitted effect of over 50% in size)
# In short: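 Steps: plate 2,000 PGC/ERR cells per well; incubate 6 h at 37 C with 5% CO2; transfer compounds from DMSO stocks by pin tool; incubate 18 h at 37 C; add One-Glo; measure luminescence 30 min later.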
# [4] = qHTS assay to identify small molecule agonists of the hypoxia (HIF-1) signaling pathway - cell viability counter screen (AID 1224844; calls by dose curve; note: nearly all actives have a fitted effect of over 50% in size)
# In short: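 Cytotoxicity was measured in parallel with the HRE-driven beta-lactamase readout: after 17 hrs of compound exposure at 37C, HRE-bla ME-180 cells received CellTiter-Glo and luminescence was recorded 30 min later.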
# [5] = qHTS assay to identify small molecule agonists of H2AX (AID 1224845; active = well fitted activation curve with a large enough effect in the signal ratio in the repeat runs, not every such curve was filed as active; inconclusive = weak or mixed curves; the % refers to the signal ratio; for activation (H2AX phosphorylation): % is set by controls: 0 for no effect and ±100 for the full control effect); conditions: CHO-K1 phospho-H2AX Ser139 HTRF, 3 h; activation (H2AX phosphorylation): at 154 µM (top of the series)
# In short: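 Wild-type CHO-K1 cells, plated overnight, exposed 3hr at 37C to 15 concentrations (0.76% DMSO final). Lysed, then HTRF anti-pH2AX (S139) cryptate and anti-H2AX-d2 antibodies, 24 hr room temperature; 665/620 nm emission read.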
# [6] = qHTS assay to identify small molecule agonists of the hypoxia (HIF-1) signaling pathway (AID 1224846; active = well fitted activation curve with a large enough effect in the signal ratio in the repeat runs, not every such curve was filed as active; inconclusive = weak or mixed curves; the % refers to the signal ratio; for activation: % is set by controls: 0 for no effect and ±100 for the full control effect); conditions: HRE-bla ME-180 cells, beta-lactamase ratio, 17 h; activation: at 76.8 µM (top of the series) unless noted
# In short: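 Compounds from the Tox21 10K library, dissolved in DMSO, are tested for induction of a hypoxia response element–controlled beta-lactamase reporter in ME-180 cells. Exposure lasts 17 hrs at 37C after a 5 hr settling period, followed by CCF4-AM FRET substrate.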
# [7] = qHTS assay to identify small molecule agonists of H2AX - cell viability counter screen (AID 1224847; calls by dose curve; note: nearly all actives have a fitted effect of over 30% in size)
# In short: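 Cytotoxicity counter screen in wild-type CHO-K1 cells: a 3 hr compound treatment at 37C across 15 concentrations, followed by CellTiter-Glo luminescence to gauge viable cells.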
# [8] = qHTS RealTime-Glo MT Cell Viability Assay in HepG2 cells - 40 hour (AID 1224870); note: nearly all actives have a fitted effect of over 50% in size
# In short: (§1)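 HepG2 cells (600/well) mixed with RealTime-Glo MT reagent, settled 5 h at 37 C/5% CO2 before compound addition. Nonlytic NanoLuc luminescence from viable-cell prosubstrate reduction read repeatedly during 40 h treatment at 37 C.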
# [9] = qHTS RealTime-Glo MT Cell Viability Assay in HepG2 cells - 8 hour (AID 1224873); note: nearly all actives have a fitted effect of over 55% in size
# In short: as §1
# [10] = qHTS RealTime-Glo MT Cell Viability Assay in HEK293 cells - 40 hour (AID 1224874); conditions: RealTime-Glo luminescence; max response: stronger effect = lower value; note: nearly all actives have a fitted effect of over 50% in size
# In short: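 Real-time viability in HEK293: signal arises when living cells convert a prosubstrate for NanoLuc in the medium, so luminescence tracks viable cell number. Compound (23 nL, DMSO) added 5 h post-seeding; kinetic reads at 0–40 h, 37 C.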
# [11] = target: Nuclear receptor subfamily 1 group I member 3 (Homo sapiens) (UniProt Q14994); experiment: qHTS assay to identify small molecule antagonists of the constitutive androstane receptor (CAR) signaling pathway (AID 1224838);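 note: HepG2 cells stably expressing hCAR with CYP2B6 luciferase reporter stimulated by CITCO; nearly all actives have a fitted effect of over 40% in size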
# In short: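 Antagonist mode used CITCO at a final 50 nM to activate CAR in human hepatoma HepG2 cells carrying stable hCAR and a 2.2 kb CYP2B6 promoter-luciferase construct. Compounds were tested at 15 concentrations over 24 h, with luminescence as the end point.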
# [12] = target: Thyrotropin receptor (Homo sapiens) (UniProt P16473); experiment: qHTS assay to identify small molecule agonists of the thyroid stimulating hormone receptor (TSHR) signaling pathway (AID 1224843; calls by dose curve; note: nearly all actives have a fitted effect of over 45% in size; for activation: % is set by controls: 0 for no effect and ±100 for the full control effect); conditions: TSHR-HEK293 cells, cAMP HTRF, agonist mode, 30 min; activation: at 92.4 µM (top of the series) unless noted
# In short: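 Agonist-mode screen: TSHR HEK293 cells received test chemicals for half an hour at room temperature, then HTRF cAMP detection reagents for one hour prior to fluorescence measurement. Each chemical ran as a 15-concentration series, triplicated.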
# [13] = qHTS RealTime-Glo MT Cell Viability Assay in HEK293 cells - 32 hour (AID 1224868); note: nearly all actives have a fitted effect of over 50% in size
# In short: (§2)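 Luminescence generated by NanoLuc from substrate produced by living HEK293 cells served as the viability signal. Each value reflects the reading at its stated time point during continuous 40 h compound exposure at 37 C.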
# [14] = qHTS RealTime-Glo MT Cell Viability Assay in HEK293 cells - 16 hour (AID 1224872); note: nearly all actives have a fitted effect of over 50% in size
# In short: as §2
# [15] = qHTS assay to identify small molecule agonists of the estrogen related receptor signaling pathway with the pleiotropic PPARgamma coactivator (PGC) from Tox21 10K library (AID 1224842); note: nearly all actives have a fitted effect of over 15% in size
# In short: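 PGC/ERR reporter cell line, 2,000 cells per well, incubated 6 h at 37 C before 23 nL compound in DMSO was added. After 18 h at 37 C, One-Glo luminescence read following 30 min at room temperature.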
# [16] = qHTS assay to identify small molecule antagonists of the estrogen related receptor (ERR) signaling pathway from Tox21 library (AID 1224848); note: nearly all actives have a fitted effect of over 50% in size
# In short: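 Quantitative high-throughput format: ERR reporter cells (2,000/well) pre-incubated 6 h, treated 18 h at 37 C with compounds in DMSO alongside positive and negative controls, then read by ONE-Glo luminescence.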
# [17] = qHTS RealTime-Glo MT Cell Viability Assay in HepG2 cells - 24 hour (AID 1224867); note: nearly all actives have a fitted effect of over 50% in size
# In short: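 Tox21 10K library screened in qHTS format on HepG2 cells carrying RealTime-Glo reagents. Compounds were added after a 5 h preincubation, and the luminescent signal from continuous culture was measured repeatedly during 40 h treatment.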
# [18] = A CellTox Green Cytotoxicity Assay to monitor cytotoxicity in HEK293 cells - 0 hour (AID 1224869); note: nearly all actives have a fitted effect of over 50% in size
# In short: (§3)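 Cells (HEK293, 600/well) and dye reagent are dispensed together. After 5 h at 37 C, 23 nL compound is pinned in. Plates stay at 37 C for 40 h with fluorescence read at 0h, 8h, 16h, 24h, 32h and 40h.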
# [19] = A CellTox Green Cytotoxicity Assay to monitor cytotoxicity in HEK293 cells - 40 hour (AID 1224871); note: nearly all actives have a fitted effect of over 45% in size
# In short: as §3
# Potency is the fitted concentration of half-maximal effect; tags give direction and shape of the fitted curve or compound fluorescence and quenching.
# Chain of UniProt P16473 (P16473 whole entry, looked up): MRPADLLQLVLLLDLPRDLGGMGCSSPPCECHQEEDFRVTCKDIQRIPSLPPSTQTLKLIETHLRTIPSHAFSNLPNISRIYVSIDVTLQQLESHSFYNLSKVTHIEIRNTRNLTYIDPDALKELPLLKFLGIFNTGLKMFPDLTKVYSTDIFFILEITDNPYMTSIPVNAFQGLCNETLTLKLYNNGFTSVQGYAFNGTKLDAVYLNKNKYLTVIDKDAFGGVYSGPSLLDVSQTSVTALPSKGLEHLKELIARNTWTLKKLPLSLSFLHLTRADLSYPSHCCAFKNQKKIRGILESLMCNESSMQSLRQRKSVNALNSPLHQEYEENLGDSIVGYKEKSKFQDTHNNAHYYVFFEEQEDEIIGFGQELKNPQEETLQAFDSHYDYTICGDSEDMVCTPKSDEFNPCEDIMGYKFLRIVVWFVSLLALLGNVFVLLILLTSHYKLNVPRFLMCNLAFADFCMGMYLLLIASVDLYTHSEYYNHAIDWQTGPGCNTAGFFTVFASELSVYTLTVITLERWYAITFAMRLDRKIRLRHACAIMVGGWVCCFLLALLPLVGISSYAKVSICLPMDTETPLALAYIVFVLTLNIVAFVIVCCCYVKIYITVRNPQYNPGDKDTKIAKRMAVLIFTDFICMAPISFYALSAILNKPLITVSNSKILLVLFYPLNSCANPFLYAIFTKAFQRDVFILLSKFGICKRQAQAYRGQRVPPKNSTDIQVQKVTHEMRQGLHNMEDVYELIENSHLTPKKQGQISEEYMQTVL
# Chain of UniProt Q14994 (Q14994 whole entry, looked up): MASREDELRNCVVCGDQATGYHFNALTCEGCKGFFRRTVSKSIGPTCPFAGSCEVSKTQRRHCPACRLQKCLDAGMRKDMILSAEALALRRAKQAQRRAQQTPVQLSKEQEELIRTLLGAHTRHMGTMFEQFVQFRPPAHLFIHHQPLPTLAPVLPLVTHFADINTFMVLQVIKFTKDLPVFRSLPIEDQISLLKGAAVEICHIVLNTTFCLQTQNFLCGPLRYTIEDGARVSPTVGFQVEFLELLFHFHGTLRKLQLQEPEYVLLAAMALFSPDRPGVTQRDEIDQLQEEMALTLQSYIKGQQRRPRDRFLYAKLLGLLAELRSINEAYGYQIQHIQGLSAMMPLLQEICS
compound,measurement,setting,value
Cc1nnc2n1-c1sc(CCc3ccc(CC(C)C)cc3)cc1C(c1ccccc1Cl)=NC2C (stereo not drawn),Potency,[1],inconclusive: 29.8 µM [activator]
same,Potency,[2],"inconclusive: 21.1 µM [cytotoxic, partial curve]"
same,Potency,[3],active: 10.6 µM
same,Potency,[4],active: 19 µM
same,Potency,[5],"inconclusive: 61.9 µM [activator, single point]"
same,Potency,[6],inconclusive: 26.8 µM
same,Potency,[7],"inconclusive: 55.2 µM [cytotoxic, single point]"
same,Potency,[8],"inconclusive: 19 µM [falling, partial curve]"
same,Potency,[9],"inconclusive: 23.9 µM [falling, partial curve]"
same,Potency,[10],active: 9.52 µM
CC(C)=CC1C(C(=O)OCc2coc(Cc3ccccc3)c2)C1(C)C (stereo not drawn),Potency,[11],inactive
same,Potency,[12],"inconclusive: 24.4 µM [inhibitor, partial curve] and inconclusive: 4.85 µM [inhibitor, full curve]"
same,activation,[6],inconclusive: 0.594%
same,Potency,[7],"inconclusive: 113 µM [cytotoxic] and inconclusive: 40 µM [cytotoxic, partial curve]"
same,Potency,[13],"inconclusive: 61.8 µM [cytotoxic, single point] and inactive"
same,Potency,[14],"inconclusive: 61.8 µM [cytotoxic, single point]"
same,Potency,[10],"inconclusive: 61.8 µM [cytotoxic, partial curve, poor fit]"
O=[N+]([O-])c1ccc(Cl)c([N+](=O)[O-])c1,Potency,[1],inactive
same,Potency,[2],active: 49.3 µM and active: 27.3 µM
same,Potency,[3],"inconclusive: 43.9 µM [falling, single point] and inconclusive: 68.6 µM [falling, single point]"
same,Potency,[12],"inconclusive: 7.81 µM [activator, partial curve] and inconclusive: 38.6 µM [activator, partial curve, poor fit]"
same,Potency,[6],"inconclusive: 11.1 µM [falling, full curve] and inconclusive: 11 µM [falling, full curve]"
same,Potency,[7],"active: 102 µM and inconclusive: 127 µM [cytotoxic, single point]"
CCOC(=O)[C@]1(c2ccccc2)Oc2ccccc2[C@@H]1N,Potency,[11],"inconclusive: 77 µM [inhibitor, single point]"
same,Potency,[5],inactive
same,Potency,[6],"inconclusive: 49 µM [falling, partial curve, poor fit]"
same,Potency,[7],"inconclusive: 127 µM [cytotoxic, partial curve, poor fit]"
same,Potency,[13],"inconclusive: 54.9 µM [cytotoxic, single point]"
same,Potency,[14],"inconclusive: 54.9 µM [cytotoxic, partial curve, poor fit]"
same,Potency,[10],"inconclusive: 54.9 µM [cytotoxic, single point]"
COc1cc(-c2ccc(N)c(OC)c2)ccc1N,Potency,[1],"inconclusive: 30.3 µM [activator, partial curve] and inconclusive: 54.5 µM [activator, partial curve]"
same,Potency,[2],"inconclusive: 54.7 µM [cytotoxic, partial curve, poor fit]"
same,Potency,[3],"inconclusive: 65.5 µM [falling, single point]"
same,Potency,[15],"inconclusive: 68.6 µM [activator, single point]"
same,Potency,[12],"inconclusive: 48.6 µM [falling, partial curve]"
same,activation,[12],inconclusive: -22.3% and inconclusive: -4.43% and inconclusive: -2.18%
same,Potency,[4],"inconclusive: 4.17 µM [cytotoxic, partial curve, poor fit]"
same,Potency,[5],"inconclusive: 50.7 µM [cytotoxic, partial curve] [middle of 4 runs]"
same,Potency,[6],inactive and inconclusive: 52.5 µM
same,Potency,[16],"inconclusive: 68.9 µM [inhibitor, single point] and inconclusive: 53.9 µM [inhibitor, partial curve, poor fit]"
same,Potency,[17],"inconclusive: 41.7 µM [falling, partial curve, poor fit]"
same,Potency,[13],"inconclusive: 43.8 µM [cytotoxic, partial curve]"
same,Potency,[8],"inconclusive: 46.7 µM [falling, partial curve, poor fit]"
same,Potency,[14],"inconclusive: 37.1 µM [cytotoxic, partial curve]"
same,Potency,[9],"inconclusive: 37.1 µM [falling, partial curve, poor fit]"
same,Potency,[10],"inconclusive: 43.8 µM [cytotoxic, partial curve]"
CNC(=O)CSP(=O)(OC)OC,Potency,[1],inactive
Nc1ccc(Cl)cc1N,Potency,[1],"inconclusive: 63.6 µM [activator, single point] and inconclusive: 68.6 µM [activator]"
same,Potency,[2],inconclusive: 68.6 µM [cytotoxic]
same,Potency,[15],active: 8.98 µM and active: 386 nM
same,Potency,[4],"inconclusive: 57.1 µM [cytotoxic, partial curve, poor fit] and inconclusive: 11 µM [cytotoxic, full curve]"
same,Potency,[5],"inconclusive: 56.6 µM [falling, partial curve]"
same,Potency,[7],"inconclusive: 1.79 µM [cytotoxic, single point]"
same,Potency,[17],inactive
same,Potency,[18],"inconclusive: 57.1 µM [activator, partial curve, poor fit] and active: 40 µM"
same,Potency,[19],"inconclusive: 57.1 µM [activator, partial curve, poor fit]"
same,Potency,[14],"inconclusive: 50.9 µM [cytotoxic, single point] and inconclusive: 34.7 µM [cytotoxic, partial curve]"
same,Potency,[10],"inconclusive: 1.81 µM [rising, partial curve] and inconclusive: 6.16 µM [rising, partial curve]"
